Measurements: patent publication US8088819B2, “Derivatives of substituted 3-phenyl-1-(phenylthienyl)propan-1-ones and of 3-phenyl-1-(phenylfuranyl) propan-1-ones, preparation and use” (priority 2006, dated 2012)
The name of at least one read-out is uncertain.

Tests used:
Assay type in all cases: cell-based
[1] = target: T1, hPPARdelta (Homo sapiens, UniProt Q03181); assay: PPAR activation: Gal4-hPPARδ chimera luciferase transactivation in COS-7 cells, Method 2; settings: maximum percentage response relative to the reference GW501516
T1 construct: expressed in transfected cells; host or cells: COS-7 (monkey kidney fibroblasts)
T1 sequence (Q03181 211-439 limits assumed): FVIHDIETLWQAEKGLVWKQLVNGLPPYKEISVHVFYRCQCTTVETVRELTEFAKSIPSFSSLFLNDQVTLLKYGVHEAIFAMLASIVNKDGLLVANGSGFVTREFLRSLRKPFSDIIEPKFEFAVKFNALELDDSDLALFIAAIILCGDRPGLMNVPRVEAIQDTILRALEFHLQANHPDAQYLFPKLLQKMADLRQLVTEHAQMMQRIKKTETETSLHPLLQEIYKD
Method: (§1) The activation of the PPARs was evaluated in vitro on a line of monkey kidney fibroblasts (COS-7) by measuring the transcriptional activity of chimeras constituted of the DNA binding domain of the Gal4 transcription factor of yeast and the ligand binding domain of the various PPARs. The compounds were tested at doses between 10^−5 and […] on the chimeras Gal4-PPARα, γ or δ, and the corresponding EC50 values were determined.
(§2) The principle, the cells and the plasmids used for example 5 were also employed in this example. Only the application of the transfection stage is slightly different. The details are presented below.
(§3) The adherent COS-7 cells are transfected with 40 μg of DNA per 225 cm^2 dish, with a pGal4-PPAR/Gal4(RE)_TkpGL3 ratio of 1/10, in the presence of 10% fetal calf serum. The cells are then detached and seeded in the absence of serum in 384-well plates (2×10^4 cells/well) and incubated for 4 hours at 37° C. The compounds are then diluted in a 96-well plate and transferred to the 384-well plate. Activation with the test compounds is carried out for an additional 24 h at 37° C. in the presence of 1% of Ultroser™ lipid-free synthetic serum (Biosepra). […] At the end of the experiment, the cells are lysed and the luciferase activity is determined using the Steady-Lite™ HTS (Perkin Elmer) following the supplier's recommendations.

[2] = target: T2, hPPARalpha (Homo sapiens, UniProt Q07869); assay: PPAR activation: Gal4-hPPARα chimera luciferase transactivation in COS-7 cells, Method 2; settings: maximum percentage response relative to the reference phenofibric acid
T2 construct: expressed in transfected cells; host or cells: COS-7 (monkey kidney fibroblasts)
T2 sequence (Q07869 239-466 limits assumed): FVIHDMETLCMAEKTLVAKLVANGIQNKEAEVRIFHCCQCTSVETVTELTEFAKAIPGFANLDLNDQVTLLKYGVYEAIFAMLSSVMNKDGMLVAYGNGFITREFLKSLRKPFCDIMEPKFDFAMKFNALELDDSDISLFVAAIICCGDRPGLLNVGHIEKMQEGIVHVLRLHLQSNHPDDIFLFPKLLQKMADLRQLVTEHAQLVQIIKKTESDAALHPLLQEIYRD
Method: as §1, §2, §3

[3] = target: T3, hPPARgamma (Homo sapiens, UniProt P37231); assay: PPAR activation: Gal4-hPPARγ chimera luciferase transactivation in COS-7 cells, Method 2; settings: maximum percentage response relative to the reference rosiglitazone
T3 construct: expressed in transfected cells; host or cells: COS-7 (monkey kidney fibroblasts)
T3 sequence (P37231 238-503 limits assumed): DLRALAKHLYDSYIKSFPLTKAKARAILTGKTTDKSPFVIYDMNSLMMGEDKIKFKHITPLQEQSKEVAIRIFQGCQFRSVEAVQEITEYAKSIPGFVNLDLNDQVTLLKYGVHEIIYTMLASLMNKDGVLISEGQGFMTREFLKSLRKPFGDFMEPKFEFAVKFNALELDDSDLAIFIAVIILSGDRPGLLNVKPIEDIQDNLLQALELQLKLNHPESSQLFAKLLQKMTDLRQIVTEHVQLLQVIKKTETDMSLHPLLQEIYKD
Method: The activation of the PPARs was evaluated in vitro on a line of monkey kidney fibroblasts (COS-7) by measuring the transcriptional activity of chimeras constituted of the DNA binding domain of the Gal4 transcription factor of yeast and the ligand binding domain of the various PPARs.
Only the application of the transfection stage is slightly different. The details are presented below.
The adherent COS-7 cells are transfected with 40 μg of DNA per 225 cm^2 dish, with a pGal4-PPAR/Gal4(RE)_TkpGL3 ratio of 1/10, in the presence of 10% fetal calf serum. The cells are then detached and seeded in the absence of serum in 384-well plates (2×10^4 cells/well) and incubated for 4 hours at 37° C. The compounds are then diluted in a 96-well plate and transferred to the 384-well plate. Activation with the test compounds is carried out for an additional 24 h at 37° C. in the presence of 1% of Ultroser™ lipid-free synthetic serum (Biosepra). These last 2 stages are automated using a Genesis Freedom 200™ station (Tecan). At the end of the experiment, the cells are lysed and the luciferase activity is determined using the Steady-Lite™ HTS (Perkin Elmer) following the supplier's recommendations.

CC(C)(Oc1ccc(CCC(=O)c2ccc(-c3ccc(C(F)(F)F)cc3)o2)c(Cl)c1Cl)C(=O)O [Compound 38, 2-(2,3-dichloro-4-(3-oxo-3-(5-(4-(trifluoromethyl)phenyl)fur-2-yl)-propyl)phenoxy)-2-methylpropanoic acid]
hPPARdelta % max [1]: 94%
hPPARalpha % max [2]: 40%
hPPARgamma % max [3]: 39%
